Among the data in paper PMC4900556, “Connexin43 Forms Supramolecular Complexes through Non-Overlapping Binding Sites for Drebrin, Tubulin, and ZO-1” (PLoS ONE, 2016) are binding values, retold here.

By UniProt entry, the sequences of proteins in these tests, tags left out. Where a name states a change or a piece, a line headed by the entry shows the natural chain unless it says otherwise. Chains listed by the source or under a name are the forms on record and can include a tag or linker. Residues count along the entry.
Cx43-CT residues 234–382 (Cx43-CT^234-382), untagged, from His-Cx43-CT^234-382 (P08050, residues 234-382): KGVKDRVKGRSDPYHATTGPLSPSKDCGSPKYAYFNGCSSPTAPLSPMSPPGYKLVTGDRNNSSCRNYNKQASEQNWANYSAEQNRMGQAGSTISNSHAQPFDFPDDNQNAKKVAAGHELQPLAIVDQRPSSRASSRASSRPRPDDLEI
GST-tagged Cx43CT residues 316–382 (GST-Cx43-CT^316-382) (P08050, residues 316-382): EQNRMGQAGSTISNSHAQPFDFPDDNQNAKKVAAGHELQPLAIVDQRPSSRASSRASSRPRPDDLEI
GST-Cx43-CT^240-382 Δ341–360 (P08050, form named): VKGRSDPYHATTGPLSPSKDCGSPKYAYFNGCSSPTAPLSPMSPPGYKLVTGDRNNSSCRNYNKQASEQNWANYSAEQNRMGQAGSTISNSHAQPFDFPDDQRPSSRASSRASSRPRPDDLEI
GST-Cx43-CT^244-382 Δ261–280 (P08050, form named): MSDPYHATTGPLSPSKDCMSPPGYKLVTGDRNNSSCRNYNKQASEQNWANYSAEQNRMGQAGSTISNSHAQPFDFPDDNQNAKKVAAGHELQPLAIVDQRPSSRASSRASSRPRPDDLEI
GST-Cx43-CT^240-382 Δ281–300 (P08050, form named): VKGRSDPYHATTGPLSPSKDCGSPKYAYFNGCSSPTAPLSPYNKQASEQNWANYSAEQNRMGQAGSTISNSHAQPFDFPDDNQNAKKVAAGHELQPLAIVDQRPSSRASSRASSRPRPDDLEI
GST-Cx43-CT^240-382 Δ301–320 (P08050, form named): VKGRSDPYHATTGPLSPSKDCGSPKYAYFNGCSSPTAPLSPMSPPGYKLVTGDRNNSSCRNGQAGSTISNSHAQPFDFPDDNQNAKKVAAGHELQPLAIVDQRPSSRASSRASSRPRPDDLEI
UniProt Q07157, residues 186-262: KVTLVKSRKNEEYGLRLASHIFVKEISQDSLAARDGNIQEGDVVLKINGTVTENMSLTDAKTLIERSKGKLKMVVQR
UniProt P02787, residues 20-698: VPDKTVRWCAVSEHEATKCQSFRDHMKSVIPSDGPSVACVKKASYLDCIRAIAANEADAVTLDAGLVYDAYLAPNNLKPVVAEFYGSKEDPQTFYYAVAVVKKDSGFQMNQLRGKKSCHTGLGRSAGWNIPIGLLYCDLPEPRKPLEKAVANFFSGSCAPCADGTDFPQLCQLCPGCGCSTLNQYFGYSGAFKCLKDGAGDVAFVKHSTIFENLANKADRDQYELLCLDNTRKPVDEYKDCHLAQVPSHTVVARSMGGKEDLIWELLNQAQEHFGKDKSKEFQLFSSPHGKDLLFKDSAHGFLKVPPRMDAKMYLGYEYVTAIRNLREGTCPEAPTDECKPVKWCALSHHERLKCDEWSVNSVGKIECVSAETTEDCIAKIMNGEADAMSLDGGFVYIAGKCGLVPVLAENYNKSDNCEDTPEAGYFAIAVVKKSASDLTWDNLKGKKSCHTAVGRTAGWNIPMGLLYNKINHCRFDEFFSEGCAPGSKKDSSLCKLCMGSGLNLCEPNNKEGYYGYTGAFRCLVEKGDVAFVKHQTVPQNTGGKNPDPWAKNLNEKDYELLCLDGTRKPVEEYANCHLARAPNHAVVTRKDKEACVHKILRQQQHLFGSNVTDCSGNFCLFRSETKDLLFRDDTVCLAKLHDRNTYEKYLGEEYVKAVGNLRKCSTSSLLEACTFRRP

These are yes or no findings as the source states them, for the method shown. Some binding calls cover weakened binding; strength is not graded here.

Experiment [1] concerns the target Cx43-CT residues 234–382 (Cx43-CT^234-382), untagged, from His-Cx43-CT^234-382 (UniProt P08050). The experiment is described as follows: co-IP; as a3, but Cx43-CT held by the mouse anti-Cx43 252–270 antibody (m252-270) instead of IF1; both purified.
Experiment [2] has the same target. In words: co-IP; IF1 anti-Cx43 antibody (aa 360–382) on protein A agarose beads holds the Cx43-CT construct as bait; purified prey added; 1% BSA in 1X PBS, overnight; SDS-PAGE with SYPRO-Ruby staining (tubulin-rhodamine detected by UV); both purified.
Experiment [3] deals with GST-tagged Cx43CT residues 316–382 (GST-Cx43-CT^316-382) (UniProt P08050). The experiment is described as above.
For experiment [4], the target named is GST-Cx43-CT^240-382 Δ341–360 (UniProt P08050). The experiment is described as above.
Experiment [5] addresses GST-Cx43-CT^244-382 Δ261–280 (UniProt P08050). Described as above.
Experiment [6] addresses GST-Cx43-CT^234-382 WT (UniProt P08050). Described as above.
For experiment [7], the target named is GST-Cx43-CT^240-382 Δ281–300 (UniProt P08050). Described as above.
Experiment [8] addresses GST-Cx43-CT^240-382 Δ301–320 (UniProt P08050). The description is as above.
Experiment [9] addresses GST-Cx43-CT^240-382 Δ341–360 (UniProt P08050). In words: condition: only with Cx43-CT held by the competing m252-270 antibody; co-IP; as a3, but Cx43-CT held by the mouse anti-Cx43 252–270 antibody (m252-270) instead of IF1; both purified.
The target in experiment [10] is Cx43-CT residues 234–382 (Cx43-CT^234-382), untagged, from His-Cx43-CT^234-382 (UniProt P08050). Described as above.

In the case of “GST-ZO-1^PDZ2 (residues 186–262 of human ZO-1) (from UniProt Q07157 186-262) (domain or fragment)”, the binding entry in [1] and in [2] was “binds” each time.

On to “Transferrin (Tfn) (from UniProt P02787 20-698)”, for which the binding result in [1] and in experiment [2] was “no binding” each time.

B1: Drebrin A 1–300 (Drb^1-300), untagged (domain or fragment, UniProt Q9QXS6 1-300, looked up)
chain: MAGVSFSGHRLELLAAYEEVIREESAADWALYTYEDGSDDLKLAASGEGGLQELSGHFENQKVMYGFCSVKDSQAALPKYVLINWVGEDVPDARKCACASHVAKVAEFFQGVDVIVNASSVEDIDAGAIGQRLSNGLARLSSPVLHRLRLREDENAEPVGTTYQKTDAAVEMKRINREQFWEQAKKEEELRKEEERKKALDARLRFEQERMEQERQEQEERERRYREREQQIEEHRRKQQSLEAEEAKRRLKEQSIFGDQRDEEEESQMKKSESEVEEAAAIIAQRPDNPREFFRQQERV
notes: Drebrin A residues 1-300; also called drebrin amino acids 1–300; N-terminal fragment of drebrin; source: E. coli Rosetta cells, purified on glutathione-agarose column, GST tag digested and captured with a Thrombin kit
B1: the binding entry in experiment [1] was “binds weakly”; in [3], “no binding”; in [4], “binds”; in experiment [5], “no binding”; in [6], “binds”; in experiment [7], “binds”. The binding result in experiment [2] is “binds”; in experiment [8], “binds”; in [9], “no binding”; in [10], “no binding”.
